Publication PMC4336329 (PLoS ONE, 2015)
The campaign covered roughly 310,000 compounds. About 2,200 (0.71%) showed an effect of 50% or more. Effects have a minus sign here. The list shows a part of the results.

Target: human ether-à-go-go-related gene (hERG) potassium channel (human, UniProt Q12809)
Assay: primary screen, population patch clamp on CHO cells stably expressing hERG

Chain of human ether-à-go-go-related gene (hERG) potassium channel (Q12809 whole entry, looked up): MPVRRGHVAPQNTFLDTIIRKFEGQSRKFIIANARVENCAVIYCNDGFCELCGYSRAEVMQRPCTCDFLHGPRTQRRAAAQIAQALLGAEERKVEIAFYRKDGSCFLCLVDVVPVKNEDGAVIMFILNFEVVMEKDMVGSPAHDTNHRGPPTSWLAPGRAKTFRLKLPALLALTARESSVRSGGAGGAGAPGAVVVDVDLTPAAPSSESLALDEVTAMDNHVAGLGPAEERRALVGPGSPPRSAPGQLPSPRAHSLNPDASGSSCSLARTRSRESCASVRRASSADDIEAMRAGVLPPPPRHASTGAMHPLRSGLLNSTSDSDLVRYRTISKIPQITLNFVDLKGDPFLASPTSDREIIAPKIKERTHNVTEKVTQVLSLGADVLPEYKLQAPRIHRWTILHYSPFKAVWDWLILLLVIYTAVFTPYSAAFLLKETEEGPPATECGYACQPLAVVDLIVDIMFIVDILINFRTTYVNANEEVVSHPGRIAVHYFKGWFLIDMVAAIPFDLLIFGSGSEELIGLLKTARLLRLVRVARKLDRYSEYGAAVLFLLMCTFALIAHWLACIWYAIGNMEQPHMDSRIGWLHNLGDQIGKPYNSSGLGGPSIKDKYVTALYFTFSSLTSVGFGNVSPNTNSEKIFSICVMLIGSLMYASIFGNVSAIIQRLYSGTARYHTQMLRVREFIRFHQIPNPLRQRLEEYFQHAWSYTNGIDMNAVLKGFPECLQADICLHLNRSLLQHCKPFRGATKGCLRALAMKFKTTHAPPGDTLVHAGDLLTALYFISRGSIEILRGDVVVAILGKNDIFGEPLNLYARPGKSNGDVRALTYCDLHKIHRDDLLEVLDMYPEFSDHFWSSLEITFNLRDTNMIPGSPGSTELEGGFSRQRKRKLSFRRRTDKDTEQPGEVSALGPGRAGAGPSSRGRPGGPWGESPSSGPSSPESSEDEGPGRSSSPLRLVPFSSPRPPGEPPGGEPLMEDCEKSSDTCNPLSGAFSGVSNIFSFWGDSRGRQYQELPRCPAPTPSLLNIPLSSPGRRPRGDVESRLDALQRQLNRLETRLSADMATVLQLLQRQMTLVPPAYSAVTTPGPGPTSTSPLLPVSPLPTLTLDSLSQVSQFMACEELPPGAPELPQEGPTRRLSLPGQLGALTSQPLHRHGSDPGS

SMILES | hERG current change (%, negative = inhibition) at 1uM
CCOc1ccc(C(=O)N2CCn3c2nc2ccccc23)cc1 | 11%
O=C(Nc1ccc2c(c1)OCO2)c1ccc(Cl)c(S(=O)(=O)N2CCOCC2)c1 | -5.6%
Cc1csc2nc(O)c(C(=O)NCCC3=CCCCC3)c(=O)n12 | 6.1%
COc1ccc(NC(=O)C2CC2)cc1-n1cnnn1 | 8.86%
CC(=O)Nc1ccc(NC(=O)C2CCCN2C(=O)NCc2ccccc2)cc1 (stereo not shown) | 17.1%
CCOP(=O)(c1ccccc1)c1nc(-c2ccccc2C)oc1NCc1ccccc1 (stereo not shown) | 12.1%
CCC1CCCCN1CCCNC(=O)c1c(O)nc2cc(C)ccn2c1=O (stereo not shown) | 4.81%
CCOc1ccc(C(=O)NCC(=O)OCc2nnc(-c3ccccc3)o2)cc1OCC | 1.47%
CC(c1ccccc1)n1cc(C(=O)NCC2COc3ccccc3O2)nn1 (stereo not shown) | 11%
COc1ccc(-c2c(C)nn3c(N)c(C#N)cnc23)cc1OC | 14.1%
COc1cc(/C=C2/C(=O)NC(=O)N(c3ccc(C)cc3)C2=O)cc(OC)c1OC | 11.4%
Cc1nnc2n1N=C(c1ccc(OC(F)F)cc1)C(C)S2 (stereo not shown) | -2.36%
COc1ccc(Nc2nc(-c3ccccc3F)nc3ccccc23)cc1OC | 10.6%
CN(C)S(=O)(=O)c1cccc(C(=O)NC(=S)N(CCC#N)Cc2cccnc2)c1 | 2.57%
CCCCNC(=O)NC1CCCC1 | 13.4%
COc1ccc(CCNC(=O)C(=O)NCC2OCCN2C(=O)c2ccc(Cl)cc2)cc1 (stereo not shown) | 6.48%
COc1cc(S(=O)(=O)N2CCN=C2c2ccccc2)ccc1Cl | 10.7%
c1nc2ccc(Cc3ccc4nc[nH]c4c3)cc2[nH]1 | 8.71%
CCc1cc2c(=O)n(Cc3ccccc3)c(SC3CCOC3=O)nc2s1 (stereo not shown) | -24.2%
O=C(Oc1ccc2c(c1)C(=O)c1ccccc1CO2)c1ccccc1 | 6.3%

SMILES | hERG current change (%, negative = inhibition) at 1uM
O=C(NNS(=O)(=O)c1ccc(Cl)cc1)c1sccc1-n1cccc1 | 3.83%
CCOC(=O)CC(NC(=O)c1cccc2c1C(=O)N(Cc1cccnc1)C2)c1ccc(OC(C)C)cc1 (stereo not shown) | 7.87%
CCC(C)n1c(=S)[nH]c2c(sc3ccc([N+](=O)[O-])cc32)c1=O (stereo not shown) | 15.7%
Cc1cccn2c(=O)nc(SCC(=O)N3CCN(c4ccccc4)CC3)nc12 | -30.9%
CN(NC(N)=O)c1ncc(C(F)(F)F)cc1Cl | 8.95%
COc1ccc(NC(=O)C(CCSC)NC(N)=O)cc1Cl (stereo not shown) | -0.296%
Cc1cccc(NC(=O)c2nc[nH]c2C(=O)N2CCc3ccccc3C2)c1 | 10.2%
CCC(=O)Nc1nnc(SCC(=O)Nc2ccc3c(c2)OCCO3)s1 | 19.8%
COC(=O)c1ccc(NC(=O)CSc2nncn2-c2cccnc2)cc1 | -4.44%
CSc1nc(-c2ccco2)cc(C(F)(F)F)c1C#N | 12%
Cc1ccc(C(=O)NNC(=O)c2ccc(Br)s2)cc1S(=O)(=O)N1CCOCC1 | 2.22%
Cc1ccc(C(C(=O)NC2CCCC2)N(CCCO)C(=O)Cn2nnc(-c3ccc(C)o3)n2)cc1 (stereo not shown) | 15.5%
COc1ccc(C(NC(=O)/C=C/c2ccco2)c2ccc(OC)c(OC)c2)cc1 (stereo not shown) | 3.13%
CCCCCOc1ccc(NC(=O)C(=O)NCCC2=CCCCC2)cc1 | 10.5%
COc1ccccc1N1C(=O)CSC1=NC(=O)c1ccccc1 | 12.7%
N#Cc1ccc(C23CC4(C2)[C@H](CN(CC2CCCCC2)[C@@H]4c2ccccc2)C3c2ccccc2)cc1 (stereo partly shown) | -3.77%
S=C(Nc1ccc(Cl)cc1)Nc1ccc2cn[nH]c2c1 | 11%
CN(C)CCCN(C(=O)c1ccc(Br)s1)c1nc2cc3c(cc2s1)OCO3.Cl | 4.06%
CC(CNC(=O)C(=O)NC(C)CCc1ccccc1)Cc1ccccc1 (stereo not shown) | 16.9%
CC(C)c1ccc(C(=O)Nc2ccc(N3CCOCC3)cc2)cc1 | 6.46%

SMILES | hERG current change (%, negative = inhibition) at 1uM
CCCC(=O)Nc1ccc(C(=O)Nc2ccc([N+](=O)[O-])cc2OC)cc1 | 13.1%
Cc1cccc(OC(=O)c2cccnc2)c1C | 10.8%
COCCSc1nnc(NC(=O)Cc2ccc(OC)c(OC)c2)s1 | 2.88%
COc1cc(OC)c(OC)cc1C#N | 11.1%
CC(C)CNC(=O)c1ccc(COc2ccc(Cl)cc2Cl)o1 | 4.93%
Cc1[nH]c2ccccc2c1C(=O)CN1CCCCC1C (stereo not shown) | 5.39%
Cc1ccc(OC(C)C(=O)N(Cc2cccs2)C2CCS(=O)(=O)C2)cc1C (stereo not shown) | 8.4%
CC1(c2ccc(OC(F)F)cc2)NC(=O)N(CC(=O)Nc2ccc(N3CCCCC3)cc2)C1=O (stereo not shown) | 18%
Cc1ccsc1C(=O)NNC(=O)c1csc(N2CCOCC2)n1 | 12.2%
C[C@H]1C=C(C(=O)O)O[C@@H](OCc2ccc(CO)cc2)C1 | 7.29%
Cc1cc(-c2csc(Nc3ccccn3)n2)ccc1F | 11.3%
O=[N+]([O-])c1cccc2c(S(=O)(=O)N3CCOCC3)cccc12 | 1.16%
N=c1nc(SCCC(=O)O)ss1 | 7.25%
CC(C)CN(C(=O)c1ccc(C(F)(F)F)cc1)c1c(N)n(CC(C)C)c(=O)[nH]c1=O | 20.2%
Cc1ccc2nc(C(F)C(F)(F)F)[nH]c2c1 (stereo not shown) | 27.2%
Cc1cccc(NC(=O)N2CCc3ccccc3C2)c1C | 12.7%
CCCOc1ccc(/C=N/NC(=O)CN2CCCCC2)cc1OCC | 4.6%
O=C(/C=C/c1cccc([N+](=O)[O-])c1)N1CCN(Cc2ccc3c(c2)OCO3)CC1 | -20.2%
